Test results as given in the supplement of paper PMC3334620.
In all, about 33,000 sequences were measured (“E-score (-0.5 to 0.5)”: median about -0.04, highest 2% from about 0.36 on). The list shows a part of the results.

What follows are sequences tested against T1, Hmlalpha2 (UniProt P0CY09) (assay: PBM E-score (8-mer binding enrichment) (E-score (-0.5 to 0.5)); higher = stronger / more preferred TF binding; most listed sequences are background and not binding sites). Conditions: protein concentration: 200 nM; construct: GST-full length.
T1 sequence: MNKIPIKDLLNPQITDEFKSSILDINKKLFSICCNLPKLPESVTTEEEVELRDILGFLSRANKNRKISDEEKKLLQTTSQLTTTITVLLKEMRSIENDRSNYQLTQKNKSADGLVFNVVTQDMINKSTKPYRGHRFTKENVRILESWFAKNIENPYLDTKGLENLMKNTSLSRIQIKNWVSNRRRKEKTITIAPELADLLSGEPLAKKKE
In short: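 Yeast transcription factors, full-length or as DNA-binding domains, were expressed with a GST tag using PURExpress in vitro transcription/translation. At about 100-200 nM they were applied to universal all-10-mer Agilent arrays, double-stranded by primer extension on fresh or once-stripped slides. Fluorescent anti-GST detected bound protein, and masliner normalised the scans. E-scores for ungapped eight-base words, pooled with reverse complements, came from the Universal PBM Analysis Suite.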

Sequence	PBM E-score
CCTCCGAG	-0.17
TGCAAGAA	0.0679
GGATCGGA	-0.0748
GAATGGAA	-0.00121
AAGGGTAA	0.0848
GATGGTCA	-0.156
ACACGAGG	0.292
CCGAACGC	-0.0948
CCAGAGGA	-0.239
AAATCAGG	0.0012
CGAAATCG	-0.15
CTTAGATC	0.0435
CTGAACAA	0.173
CATGGACG	0.182
CGCGCCGC	-0.073
CGCTCCCG	-0.155
CTGTGCCA	-0.199
ACCAACCC	-0.0009
ACAGCTGA	-0.118
ACGTCGGA	-0.0511
AGAATTAT	-0.0484
AACGCGTG	0.336
CTTAAAAA	0.0134
CTTCCTCC	-0.189
AGGTTCAG	-0.00896

Sequence	PBM E-score
AAGTCACC	-0.166
CTAAGCTA	-0.00389
ACTGCTCC	-0.213
AGTCGGGC	-0.164
GGAGCTGA	-0.183
AAGCAGTG	0.0709
GGCCACAA	-0.171
CGAAGCCC	-0.277
GAAACGGA	-0.0438
CGCAGGCC	0.00482
CGCAGCGA	0.00923
CGCGCGTC	0.0779
ATTGTCGC	-0.00639
ATATGAGG	-0.303
ACGAAAAA	0.0311
CCTCTATA	-0.127
CCCCGCAG	-0.288
CCGGCACG	-0.217
GGGTCCCA	-0.209
CTCGAGGC	-0.131
AAAGCTAG	-0.129
CGGCTAAG	-0.215
ACTGTATG	0.00437
CGGCCAGA	-0.359
ACGGCTAG	-0.122

Sequence	PBM E-score
AACCCATT	-0.0724
CCTGATGC	-0.144
GGTGACTA	-0.09
AAGAGTCG	0.0691
AGGTGACG	-0.11
ATTGAACA	0.232
ATACCCAG	-0.12
CCCGAGAA	-0.0896
GGGATCCA	-0.225
CACGTCAC	0.0306
CGTGTAGA	0.482
TGCGAGCA	-0.176
CAATATAA	0.0938
ATATAACG	0.216
CGTACGGC	-0.0963
GCACCTGA	-0.0306
GCAAGGAC	-0.181
AAGACAAC	0.241
GCGGAAAA	-0.0324
ACCATGAC	-0.0635
AAGTCTAG	-0.224
ACACAGTA	0.36
ATTTGACC	-0.0936
ACCCTGAT	-0.3
AACGATGG	-0.18

Sequence	PBM E-score
ACAGAACT	0.0437
AATCTAAA	0.0624
CTGATATC	0.0543
AGATGAGA	-0.162
ATCACCAC	-0.042
ATAAGGGC	-0.153
AGGCAAAC	-0.16
ACTTAGCG	0.0588
CAGTAGTC	-0.173
ACTTTGAA	0.0483
GTCGAACA	0.199
CACCGCTC	-0.191
ATGATATG	0.122
GTGCACGA	-0.0711
CAGAGAGG	-0.35
GGAGTGAC	0.0734
CCTTCTCG	-0.0763
CCAGGGAG	-0.326
ATTGACTA	-0.053
CTCTTGGA	-0.0492
GAAATCTC	-0.0991
GGCCGTCA	-0.274
AGAAGGGG	-0.217
CATCCTTA	0.0577
CCGCCTCA	-0.184

Sequence	PBM E-score
CCTGCGCG	-0.0382
ACATTCAC	0.209
CGAAGATA	-0.04
ACGTTAAC	0.281
ATTTGATG	0.0937
CCACCATA	-0.258
ACGCTCTG	-0.012
GTCTCCCA	-0.199
AAACACTC	0.109
AGGATCTC	-0.346
CAACCGAC	0.0641
CTGCACAA	0.00284
AGCACACA	-0.0355
CTTCGTGA	-0.037
ATGGGTGC	-0.0757
AGGAGTCC	-0.211
ATCATCCG	-0.1
ACCCGGCT	-0.0901
GACGGCCC	-0.386
TCGGCACA	-0.187
CCGAGTTA	0.0889
TCTGCACA	0.0476
GACTGTTA	0.0403
CTGTTCCA	-0.122
AAGCAGGC	-0.11

Sequence	PBM E-score
CTGTGGGA	-0.335
CTAATTTC	-0.0446
TAGAGAAA	-0.00565
GCGATAGC	-0.0391
CAAATACA	0.364
GCTTCATA	-0.0615
CACACGGG	0.218
AAGCAAAA	0.126
CCGCCCCC	-0.432
AATACAAG	0.386
CAGCTCCA	-0.168
CTCGAAAC	-0.0493
CAGCGGGC	-0.23
CAAACAGG	0.0864
AAAAACTT	0.169
AATCATGA	0.0793
CCTGCTCC	-0.19
CCAAGTCA	-0.267
AATAAAAG	0.00774
AGTTTGGC	-0.089
TCAAGACA	0.0062
GGGACTCA	-0.288
TCGCACGA	-0.0802
CAGATTCG	-0.0374
ACCAGATG	-0.0977

Sequence	PBM E-score
CCAGACCC	-0.326
CCGAGGGA	-0.271
AGGCGCCA	-0.24
GGTGACAC	-0.103
CGGGCCCC	-0.166
CGCTCTGC	-0.0902
AACTCGTA	0.157
ATTTCCTC	0.00737
CATAGCGG	-0.101
AACGCACA	0.218
GCCGCGGC	-0.242
ATCATGGA	-0.275
AAGTTTGC	0.0586
CGAGAAAG	-0.0529
CGAGCAGA	-0.211
GCGACCGA	-0.0555
AACTTCCC	-0.114
GGGTTAAA	0.0819
GGTCCGAC	-0.159
AATGGAGC	-0.156
CAGTTTCG	-0.205
CTTCTGTA	0.159
CCTCCCCG	-0.141
CGATCAAA	-0.181
AGGAATTA	0.121

Sequence	PBM E-score
TAACCGCA	0.0481
CTACGAGA	-0.0224
ATGCTTGG	-0.195
CATGCGCG	0.0964
ATCGATCC	-0.171
AAGAAGTC	-0.0545
ATTTTTCA	0.0432
AGAAGAGA	-0.2
CCCCCGGA	-0.355
ACCCTTAT	0.0605
AAAATTCG	0.0931
AATCGCGC	-0.087
CGCGGTGA	-0.0723
GAAGCAAC	0.025
AACGCGTC	0.238
CAACAGAG	0.00262
AAAACATC	0.311
GCGAAATA	0.181
GGCACCGA	-0.0545
CTGTGGGC	-0.0169
CGGAGACA	-0.0233
CCATACCC	-0.255
CCATTCCA	-0.172
CTGGGAGC	-0.132
AGGAGGGC	-0.171

Sequence	PBM E-score
GATATACC	0.0787
AAACTTCC	-0.158
GTTCCCCA	-0.0382
AACGCGTT	0.353
TAGGAACA	0.0479
GATGTGAA	0.148
AAACGAAA	0.115
TAAGCTCA	0.0656
AAGCTCAG	-0.0791
CCACACGA	0.00344
CGTTTGAG	0.0542
GAACTTCC	-0.0697
TGGTATAA	0.116
AGATATCA	0.0152
CATAGCGC	0.141
CATAACGC	0.226
GTAATTGA	0.312
GATTTACC	0.18
GACCGGGA	-0.28
ATGGCAAT	0.0992
CTAGCTAC	-0.00502
CAAATTCA	-0.138
AATGTCCA	0.0659
GTTTGGGA	-0.0973
AACAAGCT	0.291

Sequence	PBM E-score
ACACCACT	0.149
CCACCCGC	-0.136
GATTCAAA	0.0244
CATCCCAC	-0.237
GATAGTGC	-0.181
ACTAATGG	-0.12
CAGAGCCG	-0.134
CCTGACAC	0.00482
ACGCCCCG	-0.232
CGGCGCCA	-0.167
AAGAGGAG	-0.199
ATACCTAG	0.166
AGTGTGTA	0.395
CACCTTTA	0.00338
GAGTTATC	-0.0822
CTCATCTA	-0.167
ACACTCGT	0.0338
AACATTAA	0.286
AGTACAGA	-0.00944
TACCGGGA	-0.0534
CGAATCAG	-0.0163
ACCGCATC	-0.294
AGATCACC	-0.0356
CGCGATTC	-0.0628
AGCACTGG	-0.223

Sequence	PBM E-score
GATCCAAA	0.143
CCACTGAG	-0.178
TACTACTA	0.189
AGCTCACC	-0.227
ACAACCAT	0.278
AGTCCGAG	-0.112
AGAGAGAG	-0.172
CCGTTGGA	-0.329
AACCTAGC	0.0598
GATTGTCA	0.0647
ATAACCCA	0.0143
TCCGACGA	0.0827
TGCGTCAA	0.118
CATTGCAC	0.184
CAATTCCC	0.0909
CTTCAATC	0.0162
ACATTAAT	0.199
CGGAGGGC	-0.293
AAAATGAC	0.0538
ACCCTCGA	-0.278
AGCTGTTA	0.0595
GTACAAGA	0.329
CTCCTAGA	-0.257
CAAATAGA	-0.00781
AGAACCCT	-0.256

Sequence	PBM E-score
ATTGAGCA	0.0182
AAGCTGTA	0.223
CGCAGTCA	-0.0665
ACATGACT	0.307
CTATTGCA	0.117
ACCTGTGG	-0.199
ACGCATAC	0.236
ACCGTCGC	-0.0991
AGTTTCAC	0.0645
CGCTGGAC	-0.22
ACTTCCGC	-0.0722
AGAGTGGG	-0.215
ATAATCGA	0.025
CAGTTGGG	-0.169
CAGTTCCC	-0.207
ACGGCTGC	-0.166
CTCAGGAG	-0.0606
CAGACTAG	-0.151
CACCAGTG	-0.14
CCATCGAA	-0.132
CACGGAGG	0.0143
CATACGGG	-0.0113
CAAGTATA	0.0908
AGGGAAGA	-0.143
AGCCGTCG	0.00897

Sequence	PBM E-score
AAATACTG	0.0109
ACTGCGCG	-0.137
GACTATTA	0.0627
TTTAAAAA	0.109
ATGGATAA	-0.0525
CATGTAGG	0.407
ATAACGAT	0.0275
AGGGAATC	-0.112
ATGGCAGC	-0.166
CTCACTGC	-0.0508
AGGAAAAC	-0.0219
ACCACGAA	-0.0406
ACGTGATG	0.18
AAACAGCG	0.036
GTGGACGA	-0.06
CGTACCAA	-0.0418
CTCTGTGA	0.0893
AGGTGAGA	-0.0965
CTAGTACA	0.283
GGCTATTA	0.102
ATCCGAAC	-0.169
AGAGCCGA	-0.106
AGCTTTCC	-0.237
CAACTCAG	-0.0942
AGATGCAT	0.04

Sequence	PBM E-score
ACCTTACG	0.113
GGATATTA	0.0957
ATGGCGCG	0.0794
GCAGCCCC	-0.285
CGTGTGCC	-0.0366
AGGAGACC	-0.286
CCGTGCGC	-0.0463
CATGATGC	0.0581
ATAGCTTA	0.0621
AACGTCGG	-0.044
ATGGCTAG	-0.174
ATCCTCTA	0.0621
GGTAAGAA	-0.0659
ATTTTCAG	-0.0546
GCTAGCCC	-0.338
TCGACAAA	0.2
GTAAACCA	0.148
CTAGCGGA	-0.202
CGAGGCTC	-0.226
